Measured values published in patent publication US11178870B2 (priority 2017, dated 2021).

Key:
Type in all cases: in vivo
Botrytis cinerea = assay: Test Example B: Gray mold on tomato; conditions: for control value, Test B (gray mold on tomato): Table 7, Test B; for Test B control value (gray mold on tomato): class of control value, Table 7; for Test B control value: Gray mold on tomato
Alternaia brassicicola = assay: Test Example C: Alternaria sooty spot on cabbage; conditions: for control value, Test C (Alternaria sooty spot on cabbage): Table 7, Test C; for Test C control value (Alternaria sooty spot on cabbage): class of control value, Table 7; for Test C control value: Alternaria sooty spot on cabbage
[1] = test system: Blumeria graminis f. sp. hordei; assay: Test Example D: Powdery mildew on barley; conditions: for control value, Test D (powdery mildew on barley): Table 7, Test D; for Test D control value (powdery mildew on barley): class of control value, Table 7; for Test D control value: Powdery mildew on barley
Puccinia recondita = assay: Test Example E: Brown rust on wheat; conditions: for control value, Test E (brown rust on wheat): Table 7, Test E; for Test E control value (brown rust on wheat): class of control value, Table 7; for Test E control value: Brown rust on wheat
Plasmopara viticola = assay: Test Example G: Downy mildew on vine; conditions: for control value, Test G (downy mildew on vine): 250 ppm sprayed (2.5 ml/pot) before inoculation, assessed 7 to 10 days after inoculation; for Test G control value (downy mildew on vine): 250 ppm spray, investigated 7 to 10 days after inoculation; for Test G control value (downy mildew on vine) / Test G control value: 2.5 ml/pot; for Test G control value: Downy mildew on vine, 250 ppm sprayed, 7 to 10 days after inoculation

| SMILES | control value, Test B (gray mold on tomato) (Botrytis cinerea) | control value, Test C (Alternaria sooty spot on cabbage) (Alternaia brassicicola) | control value, Test D (powdery mildew on barley) [1] | control value, Test E (brown rust on wheat) (Puccinia recondita) | control value, Test G (downy mildew on vine) (Plasmopara viticola) | Test B control value (Botrytis cinerea) | Test C control value (Alternaia brassicicola) | Test D control value [1] | Test E control value (Puccinia recondita) | Test G control value (Plasmopara viticola) | also measured |
| --- | --- | --- | --- | --- | --- | --- | --- | --- | --- | --- | --- |
| Cc1cnn(-c2cc(Cl)c(=O)n(CC(F)F)c2-c2ccc(F)cc2Cl)c1Cl [Compound 343] | H (H shows the control value more than 50%) | H (H shows the control value more than 50%) | H (H shows the control value more than 50%) | H (H shows the control value more than 50%) | H (H shows the control value more than 50%) |  |  |  |  |  |  |
| Cc1cc(F)ccc1-c1c(-n2ncc(C)c2Cl)cc(Br)c(=O)n1C [Compound 514] |  |  |  |  |  |  |  |  |  |  | Test B control value (gray mold on tomato) (Botrytis cinerea): H (H shows the control value more than 50%); Test C control value (Alternaria sooty spot on cabbage) (Alternaia brassicicola): H (H shows the control value more than 50%); Test D control value (powdery mildew on barley) [1]: H (H shows the control value more than 50%); Test E control value (brown rust on wheat) (Puccinia recondita): H (H shows the control value more than 50%); Test G control value (downy mildew on vine) (Plasmopara viticola): L (L shows the control value of 50% or less) |
| Cn1c(-c2c(F)cccc2Cl)c(-n2cc(F)cn2)cc(Br)c1=O [Compound 510] |  |  |  |  |  |  |  |  |  |  | Test B control value (gray mold on tomato) (Botrytis cinerea): H (H shows the control value more than 50%); Test C control value (Alternaria sooty spot on cabbage) (Alternaia brassicicola): H (H shows the control value more than 50%); Test D control value (powdery mildew on barley) [1]: H (H shows the control value more than 50%); Test E control value (brown rust on wheat) (Puccinia recondita): H (H shows the control value more than 50%); Test G control value (downy mildew on vine) (Plasmopara viticola): L (L shows the control value of 50% or less) |
| COc1cc(F)c(-c2c(-n3cc(Cl)cn3)cc(Cl)c(=O)n2C)c(F)c1 [Compound 177] |  |  |  |  |  | H (H shows the control value more than 50%) | H (H shows the control value more than 50%) | H (H shows the control value more than 50%) | H (H shows the control value more than 50%) | H (H shows the control value more than 50%) |  |
| CCn1c(-c2c(F)cc(F)cc2F)c(-n2cc(F)cn2)cc(Br)c1=O [Compound 194] | H (H shows the control value more than 50%) | H (H shows the control value more than 50%) | H (H shows the control value more than 50%) | H (H shows the control value more than 50%) | L (L shows the control value of 50% or less) |  |  |  |  |  |  |
| CCn1c(-c2ccccc2OC)c(-n2cc(Cl)cn2)cc(Br)c1=O [Compound 241] | H (H shows the control value more than 50%) | L (L shows the control value of 50% or less) | L (L shows the control value of 50% or less) | H (H shows the control value more than 50%) | L (L shows the control value of 50% or less) |  |  |  |  |  |  |
| Cc1ccsc1-c1cc(Cl)c(=O)n(CC(F)F)c1-c1c(F)cccc1F [Compound 445] |  |  |  |  |  |  |  |  |  |  | Test B control value (gray mold on tomato) (Botrytis cinerea): H (H shows the control value more than 50%); Test C control value (Alternaria sooty spot on cabbage) (Alternaia brassicicola): H (H shows the control value more than 50%); Test D control value (powdery mildew on barley) [1]: H (H shows the control value more than 50%); Test E control value (brown rust on wheat) (Puccinia recondita): H (H shows the control value more than 50%); Test G control value (downy mildew on vine) (Plasmopara viticola): L (L shows the control value of 50% or less) |
| Cc1cnn(-c2ccc(=O)n(CC(F)F)c2-c2ccccc2F)c1 [Compound 305] | L (L shows the control value of 50% or less) | H (H shows the control value more than 50%) | H (H shows the control value more than 50%) | H (H shows the control value more than 50%) | L (L shows the control value of 50% or less) |  |  |  |  |  |  |
| O=c1c(Cl)cc(-n2cc(Cl)cn2)c(-c2c(F)cc(F)cc2F)n1CC(F)F [Compound 110] |  |  |  |  |  | H (H shows the control value more than 50%) | H (H shows the control value more than 50%) | H (H shows the control value more than 50%) | H (H shows the control value more than 50%) | L (L shows the control value of 50% or less) |  |
| CCn1c(-c2ccccc2Br)c(-n2cc(F)cn2)cc(Cl)c1=O [Compound 357] | H (H shows the control value more than 50%) | H (H shows the control value more than 50%) | H (H shows the control value more than 50%) | H (H shows the control value more than 50%) | L (L shows the control value of 50% or less) |  |  |  |  |  |  |
| CCn1c(-c2c(F)cc(OC)cc2F)c(-n2cc(F)cn2)cc(Cl)c1=O [Compound 314] | H (H shows the control value more than 50%) | H (H shows the control value more than 50%) | H (H shows the control value more than 50%) | H (H shows the control value more than 50%) | L (L shows the control value of 50% or less) |  |  |  |  |  |  |
| CCn1c(-c2c(F)cc(F)cc2F)c(-n2cccn2)cc(Cl)c1=O [Compound 84] |  |  |  |  |  | H (H shows the control value more than 50%) | H (H shows the control value more than 50%) | H (H shows the control value more than 50%) | H (H shows the control value more than 50%) | L (L shows the control value of 50% or less) |  |
| CCn1c(-c2c(F)cc(F)cc2F)c(-c2ocnc2Br)cc(Br)c1=O [Compound 97] |  |  |  |  |  | H (H shows the control value more than 50%) | H (H shows the control value more than 50%) | H (H shows the control value more than 50%) | H (H shows the control value more than 50%) | H (H shows the control value more than 50%) |  |
| CCn1c(-c2c(F)cc(F)cc2F)c(-n2ncnc2Br)cc(Br)c1=O [Compound 46] |  |  |  |  |  | H (H shows the control value more than 50%) | H (H shows the control value more than 50%) | H (H shows the control value more than 50%) | H (H shows the control value more than 50%) | H (H shows the control value more than 50%) |  |
| CCn1c(-c2c(F)cc(F)cc2F)c(-n2cc(C(F)(F)F)cn2)cc(Cl)c1=O [Compound 155] |  |  |  |  |  | L (L shows the control value of 50% or less) | H (H shows the control value more than 50%) | L (L shows the control value of 50% or less) | L (L shows the control value of 50% or less) | L (L shows the control value of 50% or less) |  |
| CCn1c(-c2c(F)cccc2F)c(-c2ocnc2F)cc(Cl)c1=O [Compound 51] |  |  |  |  |  | H (H shows the control value more than 50%) | H (H shows the control value more than 50%) | H (H shows the control value more than 50%) | H (H shows the control value more than 50%) | H (H shows the control value more than 50%) |  |
| Cc1cnn(-c2cc(Cl)c(=O)n(C)c2-c2ccc(F)cc2F)c1Cl [Compound 410] |  |  |  |  |  |  |  |  |  |  | Test B control value (gray mold on tomato) (Botrytis cinerea): H (H shows the control value more than 50%); Test C control value (Alternaria sooty spot on cabbage) (Alternaia brassicicola): H (H shows the control value more than 50%); Test D control value (powdery mildew on barley) [1]: H (H shows the control value more than 50%); Test E control value (brown rust on wheat) (Puccinia recondita): H (H shows the control value more than 50%); Test G control value (downy mildew on vine) (Plasmopara viticola): H (H shows the control value more than 50%) |
| CCn1c(-c2c(F)cc(F)cc2F)c(-c2cccnc2Cl)cc(Br)c1=O [Compound 63] |  |  |  |  |  | H (H shows the control value more than 50%) | H (H shows the control value more than 50%) | H (H shows the control value more than 50%) | H (H shows the control value more than 50%) | H (H shows the control value more than 50%) |  |
| CCn1c(-c2ccccc2Cl)c(-n2cnc(Cl)c2Cl)ccc1=O [Compound 208] | H (H shows the control value more than 50%) | H (H shows the control value more than 50%) | H (H shows the control value more than 50%) | H (H shows the control value more than 50%) | L (L shows the control value of 50% or less) |  |  |  |  |  |  |
| CCn1c(-c2ccc(OC)cc2Cl)c(-n2cc(Cl)cn2)cc(Cl)c1=O [Compound 159] |  |  |  |  |  | H (H shows the control value more than 50%) | H (H shows the control value more than 50%) | H (H shows the control value more than 50%) | H (H shows the control value more than 50%) | L (L shows the control value of 50% or less) |  |
| CCn1c(-c2c(F)cccc2F)c(-c2cnc(NC)o2)cc(Cl)c1=O [Compound 134] |  |  |  |  |  | H (H shows the control value more than 50%) | L (L shows the control value of 50% or less) | L (L shows the control value of 50% or less) | L (L shows the control value of 50% or less) | L (L shows the control value of 50% or less) |  |
